Source: article PMC4336329 (PLoS ONE, 2015)
Hit rate of the full screen: of about 310,000 compounds, about 14,000 (4.5%) showed an effect of 50% or more. Effects have a minus sign here. This is one part of the list.

Biological target: human ether-à-go-go-related gene (hERG) potassium channel (human, UniProt Q12809)
Assay: primary screen, population patch clamp on CHO cells stably expressing hERG
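Further: peak tail current of the secondary pulse compared with the same well before compound.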

human ether-à-go-go-related gene (hERG) potassium channel, sequence (Q12809 whole entry, looked up): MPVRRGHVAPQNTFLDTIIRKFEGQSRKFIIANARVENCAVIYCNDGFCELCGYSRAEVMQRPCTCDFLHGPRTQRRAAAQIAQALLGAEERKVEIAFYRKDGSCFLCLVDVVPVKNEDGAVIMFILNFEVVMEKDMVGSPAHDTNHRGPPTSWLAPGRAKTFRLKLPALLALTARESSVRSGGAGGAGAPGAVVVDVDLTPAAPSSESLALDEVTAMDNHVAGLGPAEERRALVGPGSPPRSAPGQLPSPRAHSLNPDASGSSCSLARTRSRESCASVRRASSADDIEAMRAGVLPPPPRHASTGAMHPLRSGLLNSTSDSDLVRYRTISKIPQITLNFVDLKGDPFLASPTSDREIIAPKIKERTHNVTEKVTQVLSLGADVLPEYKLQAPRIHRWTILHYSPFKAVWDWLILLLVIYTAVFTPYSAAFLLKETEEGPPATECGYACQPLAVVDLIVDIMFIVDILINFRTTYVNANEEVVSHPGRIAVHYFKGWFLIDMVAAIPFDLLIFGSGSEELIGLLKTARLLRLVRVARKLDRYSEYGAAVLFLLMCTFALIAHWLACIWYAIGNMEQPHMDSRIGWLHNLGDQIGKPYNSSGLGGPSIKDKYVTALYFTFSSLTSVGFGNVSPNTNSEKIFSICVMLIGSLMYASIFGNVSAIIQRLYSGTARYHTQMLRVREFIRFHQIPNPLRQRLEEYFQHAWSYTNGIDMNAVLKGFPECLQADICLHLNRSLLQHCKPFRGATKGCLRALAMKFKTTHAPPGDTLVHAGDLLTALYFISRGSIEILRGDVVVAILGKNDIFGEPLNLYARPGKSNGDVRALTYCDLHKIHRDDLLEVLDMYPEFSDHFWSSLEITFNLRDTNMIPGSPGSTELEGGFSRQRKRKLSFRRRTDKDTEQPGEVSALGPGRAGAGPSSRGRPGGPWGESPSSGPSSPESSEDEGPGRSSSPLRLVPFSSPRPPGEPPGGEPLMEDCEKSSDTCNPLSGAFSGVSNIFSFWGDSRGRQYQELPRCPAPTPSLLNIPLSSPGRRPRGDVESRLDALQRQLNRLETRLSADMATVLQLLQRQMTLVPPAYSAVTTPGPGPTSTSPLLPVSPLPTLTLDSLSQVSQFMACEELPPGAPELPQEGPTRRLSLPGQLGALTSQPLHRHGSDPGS

Row | SMILES | hERG current change (%, negative = inhibition) at 10uM [%]
1 | Cc1ccc(-n2ncc3c(SCc4ccccn4)ncnc32)c(C)c1 | 14.5
2 | CN1CCN(/N=C/c2ccc(C#N)cc2)CC1.Cl | -34.3
3 | C=CCOc1ccccc1C1NC(=O)NC(C)=C1C(=O)NCc1ccccc1 (stereo not shown) | -5.94
4 | O=[N+]([O-])c1cc2c(cc1/C=N\NS(=O)(=O)c1ccccc1)OCO2 | 10.8
5 | O=c1[nH]c2ccccc2c(O)c1-c1ccccc1 | 6.68
6 | CC12C(=O)N(c3ccc(C(=O)N4CCOCC4)cc3)C(=O)C1C1c3ccccc3C2c2ccccc21 (stereo not shown) | -6.54
7 | CS(=O)(=O)N(CCc1ccccc1)CC(=O)N1CCCC1 | -2.89
8 | C/C(=N\OC(=O)c1ccc(Cl)cc1)c1nccs1 | 12.3
9 | O=C(/C=C/c1ccc(F)cc1)NCC1(c2ccccc2)CCOCC1 | -50.5
10 | CCOCCCNc1nc2c([nH]1)c(=O)n(C)c(=O)n2C | -3.9
11 | CC1=Nc2ccc(C)cc2N(Cc2ccccc2)C(=O)C1 | 9.98
12 | COCC(C)n1c(C)cc(C(=O)CSc2nnc(Nc3ccccc3F)s2)c1C (stereo not shown) | -6.98
13 | O=C(/C=C/NCc1cccnc1)C(F)(F)C(F)(F)F | 11.8
14 | CCOc1ccc(-n2c(C)cc(/C=N/NC(=O)C(N)=O)c2C)cc1 | 12.8
15 | Cc1cc(OCC(=O)NCc2cccnc2)ccc1[N+](=O)[O-] | 4.53
16 | COc1ccc(C(=O)NCCCNC(=O)c2ccc(C)nc2)cc1 | 24
17 | Cc1cccc(C)c1NC(=O)C(=O)c1cn(C)c2ccccc12 | 5.47
18 | O=C(CCNC(=O)c1ccc([N+](=O)[O-])cc1)NCc1ccco1 | -22.3
19 | Cc1ccc(-c2nn(-c3ccccc3)cc2C2CC(c3cccs3)=NN2C(=O)CCC(=O)O)cc1 (stereo not shown) | 14.7
20 | COc1ccccc1NC(=O)Nc1cc(NC(=O)Nc2ccccc2OC)c(C)nc1C | 21.7
21 | CC(=O)Nc1ccc(S(=O)(=O)Oc2ccc(N3C(=O)C4CCCCC4C3=O)cc2)cc1 (stereo not shown) | -20.4
22 | CC1CCCC(NC(=O)CNC(=O)c2cccs2)C1C (stereo not shown) | -0.85

Row | SMILES | hERG current change (%, negative = inhibition) at 10uM [%]
23 | C=CCn1c(COc2ccccc2C)nnc1SCC(=O)O | 16.6
24 | Cc1ccc2nc(SCC(=O)N3CCCCCC3)nc(=O)n2c1 | 10.7
25 | CCOC(=O)N1CCN(C(=O)C2CCN(Cc3ccc(OC)cc3OC)CC2)CC1.O=C(O)C(=O)O | -38.5
26 | O=C1Nc2ccc(Cl)cc2C12Nc1ccccc1-c1nnc(SCc3ccccc3F)nc1O2 (stereo not shown) | -1.36
27 | CC(=O)N1c2ccc(S(=O)(=O)NCCC(=O)NCc3ccc(N(C)C)cc3)cc2CC1C (stereo not shown) | 13.8
28 | O=C(COc1nnc2ccccn12)N1CCN(S(=O)(=O)c2ccccc2)CC1 | 18
29 | CCSC(=O)CCCCCCCCCCCO | 11.6
30 | COc1ccc(CCNC(=O)c2cc(C)oc2C)cc1OC | 14.9
31 | CC(=O)O[C@H]1CC[C@@]2(C)C(=CC[C@H]3[C@@H]4CC[C@H](C5(C)OCCO5)[C@@]4(C)CC[C@@H]32)C1 | 13.5
32 | CSCCC(NC(=O)COc1ccccc1)C(=O)N1CCN(c2ccccc2)CC1 (stereo not shown) | -51.9
33 | CCN(CC)S(=O)(=O)c1ccc(NC(=O)c2ccc(N(C)S(C)(=O)=O)cc2)cc1 | 1.68
34 | O=[N+]([O-])c1ccc(S(=O)(=O)N2CCN=C2SCc2ccc(F)cc2)cc1 | 1.43
35 | COc1ccc2[nH]c(C)c(C(=O)CN3CCN(C(=O)c4ccco4)CC3)c2c1 | -23.2
36 | Cc1sc2c(c1C)C(=O)NC(c1ccccc1F)N2 (stereo not shown) | 8.33
37 | CC(=O)N1CCc2cc(S(=O)(=O)N3CCCCCC3)ccc21 | -1.59
38 | COC(=O)c1cc2c(N)c(C(=O)c3ccccc3)sc2nc1C(OC)OC | 0.631
39 | Cc1nc2nc(SCC(=O)c3ccc([N+](=O)[O-])cc3)[nH]c2cc1Br | 8.58
40 | CSC(=NC(C)c1ccccc1)NS(=O)(=O)c1cccs1 (stereo not shown) | 4.76
41 | CCOC(=O)c1cn2nc(-c3ccc(OC)cc3)cc2nc1C1CCN(C(=O)OC(C)(C)C)CC1 | 12.5
42 | O=C(Nc1ccc(Cl)cc1)N1CCN(Cc2ccc3c(c2)OCO3)CC1 | -27.6
43 | O=C(NCc1ccc(F)cc1)c1ccc(Br)o1 | -7.47
44 | Cc1ccc(CNC(=O)c2ccc(N3CCC4(CC3)CC(c3ccccc3)=NO4)c(NC(=O)c3cccc(C)c3)c2)cc1 | -6.37

Row | SMILES | hERG current change (%, negative = inhibition) at 10uM [%]
45 | Cc1onc(-c2ccccc2)c1C(=O)N1CCN(S(=O)(=O)c2ccccc2C(F)(F)F)CC1 | 22.6
46 | COc1ccc2cc3c(N)nn(C(=O)c4ccccc4[N+](=O)[O-])c3nc2c1 | -1.76
47 | CC1CCC(NC(=O)COC(=O)C2=NN(c3ccccc3)C(=O)CC2)CC1 (stereo not shown) | 8.43
48 | CS(=O)(=O)c1ccc(-c2cccc(NC(=O)COc3ccccc3)c2)nn1 | -3.45
49 | O=[N+]([O-])c1cccc(C(=S)N2CCN(c3ccccc3)CC2)c1 | -5.65
50 | CC(=O)N1CCN(c2ccc(NC(=O)c3ccc4c(c3)OCCO4)cc2Cl)CC1 | -64.7
51 | CS(=O)(=O)N1CCC(C(=O)Nc2ccc(F)cc2F)CC1 | 10.7
52 | COCCN1CCN(Cc2cn(C)nc2-c2ccc(Oc3ccccc3)cc2)CC1 | -65.2
53 | Cc1ccc(C)c(C(=O)NCCN(C)C)c1 | 5.16
54 | CC(=O)C1=C(O)C(=O)N(CC(=O)O)C1c1ccccc1Cl (stereo not shown) | -5.33
55 | C=CCNC(=O)C12CC3CC(C1)CC(C(=O)NCC=C)(C3)C2 | -7.18
56 | N#CCCN(CC(=O)O)S(=O)(=O)c1ccccc1 | 5.74
57 | C[C@H](CCC(=O)O)[C@H]1CC[C@H]2[C@@H]3[C@H](O)C[C@@H]4C[C@H](O)CC[C@]4(C)[C@H]3C[C@H](O)[C@]12C | 4.48
58 | Fc1ccc(CN2CCCCCCC2)c(F)c1 | 8.29
59 | Cc1ccc(NC(=O)CN2CCCCCC2)cc1Br.Cl | -20.3
60 | CCCn1c(SCC(=O)Nc2cccc(Cl)c2Cl)n[nH]c1=O | 13.5
61 | Cc1nccn1-c1ccc(C(F)(F)F)cc1[N+](=O)[O-] | 11.2
62 | O=C(NCc1cccc(C(F)(F)F)c1)c1ccc[nH]1 | 0.702
63 | CC1CCN(CCCNC(=O)C2CCC(=O)N2C2CCCC2)CC1 (stereo not shown) | -1.42
64 | COc1ccc(C(=O)COC(=O)C2CCN(S(=O)(=O)c3cccc4cccnc34)CC2)cc1 | 8.26
65 | Cc1coc(NC(=O)CSc2nc(-c3ccc(Cl)cc3)cc(C(F)(F)F)c2C#N)n1 | 9.8
66 | CCC(C)[C@H](NC(=O)N1CCC(C)CC1)C(=O)OC (stereo partly shown) | 16.7

Row | SMILES | hERG current change (%, negative = inhibition) at 10uM [%]
67 | Cn1c(O)c(/C=C2\N=c3ccccc3=C2CCNC(=S)NC2CC2)c(=O)n(C)c1=O | -44.6
68 | Cc1ccnc(SCc2ccc([N+](=O)[O-])cc2)n1 | -19.1
69 | COc1ccc(NC(=O)CN2C(=O)NC(CC(C)C)C2=O)cc1S(=O)(=O)N1CCOCC1 (stereo not shown) | 11
70 | N#CC1=C(S)N(c2ccccc2)C(c2ccc(-c3cc(Cl)ccc3Cl)o2)NC1=O (stereo not shown) | 6.41
71 | CCOC(=O)Cn1nc(C(F)F)c(Br)c1C | 39.6
72 | Cc1nn(Cc2ccccc2Cl)c2sc(C(=O)NC(C)(C)C)cc12 | 10.7
73 | Cc1c(NC(=O)CCC(=O)N2CCOCC2)c(=O)n(-c2ccccc2)n1C | 1.09
74 | CN(C)S(=O)(=O)c1ccc(C(=O)Oc2ccccc2)cc1 | 7.17
75 | CN(C)C1=NCCN1CCCC1CCCC1 | -51
76 | NC(=O)c1c(NC(=O)c2ccccc2F)sc2c1CCCC2 | 22
77 | N#Cc1cc2c(ccc3ccccc32)oc1=O | 21.7
78 | COc1cccc(Nc2nnc(SCc3cc([N+](=O)[O-])cc4c3OCOC4)s2)c1 | -4.71
79 | C/C(=N/NC(=O)CNC(=O)COc1ccccc1)c1ccc(Cl)cc1 | 13.2
80 | O=C(CN1C(=O)S/C(=C\C=C\c2ccccc2)C1=O)Nc1ccc(O)cc1 | 6.72
81 | CC1CCC(C(C)C)C(OCC(O)CNC(C)C)C1.Cl (stereo not shown) | -3.65
82 | Cc1ccc(CCNC(=O)Cn2ncc3c([nH]c4ccccc43)c2=O)cc1 | 14.8
83 | Cc1c(C#N)c2ccccc2n1CC(=O)NC(C)c1ccccc1 (stereo not shown) | -5.59
84 | Cc1ccc(NC(=O)/C=C\C(=O)O)c([N+](=O)[O-])c1 | 21.4
85 | Cc1ccc(C(=O)Nc2ccc(Cl)cc2C)c(Cl)c1 | 13.2
86 | COc1ccc(CNCc2c(F)cccc2F)cc1OC.O=C(O)C(=O)O | 3.43
87 | COc1cccc(CN(C)C(=O)c2ccccc2Sc2ccccc2C#N)c1OC | -16.6
88 | NS(=O)(=O)c1ccc(CNC(=O)c2scc3c2CCCC3)cc1 | -18.8
